Results published in PubChem BioAssay AID504332 (National Center for Advancing Translational Sciences (NCATS), 2011).
Screen size: about 350,000 compounds; about 31,000 (8.9%) were called active. Inconclusive means that the source gave no clear call. Such entries were picked first, then a sample of the others. Calls follow the shape of the dose curve; as a rule, active = well fitted inhibition curve with a large enough effect; inconclusive = small, poorly fitted or top-dose-only effect; inactive = no such curve, though single readings can be large or run the other way. Potencies beside an inconclusive call are fits to weak or partial responses and may not hold up.

molecular target: Histone-lysine N-methyltransferase EHMT2 (Homo sapiens) (UniProt Q96KQ7); experiment: qHTS Assay for Inhibitors of Histone Lysine Methyltransferase G9a; conditions: G9a H3K9 monomethylation, AlphaScreen, 2 h; activity, negative = inhibition: at 59 µM (top of the series) unless noted; also: nearly all actives have a fitted effect of over 75% in size
Sequence of UniProt Q96KQ7 (Q96KQ7 whole entry, looked up): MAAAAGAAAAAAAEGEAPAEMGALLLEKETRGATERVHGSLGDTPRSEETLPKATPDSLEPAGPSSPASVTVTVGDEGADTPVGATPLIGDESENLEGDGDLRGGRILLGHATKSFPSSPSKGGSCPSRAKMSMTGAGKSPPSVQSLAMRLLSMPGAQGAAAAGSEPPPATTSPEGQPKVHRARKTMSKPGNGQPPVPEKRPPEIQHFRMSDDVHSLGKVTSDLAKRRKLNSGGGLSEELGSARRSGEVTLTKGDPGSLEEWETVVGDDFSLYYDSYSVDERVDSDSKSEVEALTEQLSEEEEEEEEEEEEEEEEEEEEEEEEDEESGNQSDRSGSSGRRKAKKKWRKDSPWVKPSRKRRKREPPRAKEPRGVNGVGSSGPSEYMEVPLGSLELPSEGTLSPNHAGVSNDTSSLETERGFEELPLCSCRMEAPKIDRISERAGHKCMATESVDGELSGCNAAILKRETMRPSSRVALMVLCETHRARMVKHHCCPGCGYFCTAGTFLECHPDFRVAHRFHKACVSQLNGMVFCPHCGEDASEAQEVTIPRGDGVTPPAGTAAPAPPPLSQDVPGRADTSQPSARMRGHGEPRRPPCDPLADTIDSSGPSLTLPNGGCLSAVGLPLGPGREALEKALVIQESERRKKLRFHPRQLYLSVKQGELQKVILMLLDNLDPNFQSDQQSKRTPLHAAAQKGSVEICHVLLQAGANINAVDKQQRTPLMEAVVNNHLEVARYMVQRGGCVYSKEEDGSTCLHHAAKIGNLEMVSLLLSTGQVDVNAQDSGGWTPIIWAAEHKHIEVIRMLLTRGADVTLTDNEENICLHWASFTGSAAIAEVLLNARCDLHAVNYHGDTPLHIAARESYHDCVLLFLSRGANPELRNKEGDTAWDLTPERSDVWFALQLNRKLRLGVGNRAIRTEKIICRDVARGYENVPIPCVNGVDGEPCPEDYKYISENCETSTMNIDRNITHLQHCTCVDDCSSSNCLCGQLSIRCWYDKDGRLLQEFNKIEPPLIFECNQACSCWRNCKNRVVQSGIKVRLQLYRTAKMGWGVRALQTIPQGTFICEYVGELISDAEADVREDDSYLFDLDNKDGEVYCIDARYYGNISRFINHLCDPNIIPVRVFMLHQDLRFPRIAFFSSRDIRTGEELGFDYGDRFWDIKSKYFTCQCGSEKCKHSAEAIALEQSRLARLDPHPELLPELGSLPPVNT
Procedure, shortened: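 Using a bead-based AlphaScreen, monomethylated H3K9 product from 2 h room-temperature reactions (G9a 20 nM, peptide 500 nM, SAM 20 uM) was detected with 0.5 ug/mL rabbit anti-H3K9me1 antibody.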
% is scaled to controls: 0 for no effect and ±100 for the full control effect; potency is read from the fitted curve at half-maximal effect; tags tell the direction and shape of the fitted curve.

Row | SMILES | Potency | activity, negative = inhibition
1 | C=CCN1C(=O)C(CC(=O)O)SC1=Nc1ccc(N=Nc2ccccc2)cc1 (configuration not stated) | active: 39.8 µM | 
2 | Cn1ncc2c(NNC(=O)Cc3ccccc3)ncnc21 | inconclusive: 28.2 µM [inhibitor, single point] | 
3 | COc1cccc(NC(=S)N(CCCN2CCOCC2)C(C)c2cc3ccccc3o2)c1 (configuration not stated) | inconclusive: 89.1 µM [inhibitor, single point] | 
4 | Cc1ccc2occ(C3NC(C(=O)O)CS3)c(=O)c2c1 (configuration not stated) | active: 5.01 µM | 
5 | COc1ccc(C(=O)Nc2ncccc2C)cc1S(=O)(=O)N1CCOCC1 |  | inactive: -42.4% [at 102 µM]
6 | COc1cc(-c2nnc(SCCOc3ccccc3)o2)cc(OC)c1OC |  | inactive: -22.7%
7 | CCOC(=O)Cn1c(=O)oc2cc(S(=O)(=O)Nc3ccccc3F)ccc21 |  | inactive: -1.72%
8 | COc1cc2c(cc1OC)C(C(=O)Nc1ccc(F)c(Cl)c1)CC(=O)N2 (configuration not stated) |  | inactive: 7.52% [at 102 µM]
9 | COc1cccc(NC(=S)N(CCCN2CCCC2)Cc2ccco2)c1 |  | inactive: 15.7% [at 102 µM]
10 | CCN1CCN(c2ccc(S(=O)(=O)N3CCOCC3)cc2NC(=O)c2sccc2C)CC1 | active: 12.6 µM | 
11 | O=C(Cn1cc(S(=O)(=O)Cc2ccccc2Cl)c2ccccc21)Nc1ccc(F)cc1F |  | inactive: 4.89%
12 | Cc1ccc(Cn2c(CO)cnc2SCC(=O)Nc2cccc(F)c2)cc1 | inconclusive: 12.6 µM [inhibitor, partial curve, poor fit] | 
13 | COc1ccc(-c2noc(-c3ccc(NCCc4ccccc4)c([N+](=O)[O-])c3)n2)cc1 | inconclusive: 28.2 µM [inhibitor, single point] | 
14 | Cc1ccn2cc(C(=O)NC3CCN(Cc4ccccc4)CC3)nc2c1 | inconclusive: 89.1 µM [inhibitor, single point] | 
15 | CCc1ccc(N(CC(=O)NCc2cccnc2)S(=O)(=O)c2ccccc2)cc1 |  | inactive: 11% [at 102 µM]
16 | O=C(/C=C/C=C/c1ccccc1)c1ccco1 | active: 50.1 µM | 
17 | CC(C)Nc1nnc(SCC(=O)Nc2ccc3c(c2)C(=O)c2ccccc2C3=O)s1 | inconclusive: 28.2 µM [inhibitor, partial curve, poor fit] | 
18 | COc1ccc(C2=NC(C)(C)Cc3cc(OC)c(OC)cc32)cc1OC |  | inactive: -15.5% [at 102 µM]
19 | NS(=O)(=O)c1ccc(NC(=O)CSc2n[nH]c(=O)n2Cc2ccccc2)cc1 | inconclusive: 89.1 µM [inhibitor, single point] | 
20 | O=C(Cn1c(-c2ccccc2)c[n+]2ccsc12)c1ccc(Br)cc1 | inconclusive: 56.2 µM [inhibitor, partial curve, poor fit] | 
21 | Cc1cc(Br)ccc1SCC(=O)OCC(=O)NC1CC1 | active: 79.4 µM | 
22 | COc1ccccc1N1CCN(C(=O)COc2ccccc2C#N)CC1 |  | inactive: -30%
23 | CC(C)C1CC(c2ccccc2)(C(CN)CO)CCO1 (configuration not stated) | inconclusive: 44.7 µM [inhibitor, partial curve, poor fit] | 
24 | COc1ccccc1-c1nccc(Nc2ccc(F)cc2)n1 |  | inactive: 5.32% [at 0.501 µM]

Row | SMILES | Potency | activity, negative = inhibition
25 | Cc1cccc(N2CCN(C(=O)CCCSc3nc4ccccc4[nH]3)CC2)c1C |  | inconclusive: -77.5% [inhibitor]
26 | CN(C(=O)CSc1nc2ccccc2n1CC(=O)N(C)C1CCCCC1)c1ccc(F)cc1 |  | inactive: -7.97%
27 | CCc1ccccc1NC(=O)c1ccc2c(c1)c(C)c(C)n2Cc1ccccc1 | inconclusive: 28.2 µM [inhibitor, single point] | 
28 | COC(=O)c1cc2sccc2n1Cc1nc(-c2ccc(C)cc2)oc1C | inconclusive: 15.8 µM [inhibitor, partial curve] | 
29 | COc1ccccc1N1CCN(C(=O)CCCn2nc(C)c([N+](=O)[O-])c2C)CC1 |  | inactive: -5.56% [at 102 µM]
30 | CN(c1ccccc1)S(=O)(=O)c1cccc(NC(=O)Cc2ccc(Cl)cc2)c1 |  | inactive: -10.8% [at 12.7 µM]
31 | COc1cccc(C2=NN(C(=O)c3cccs3)C(O)(C(F)(F)F)C2)c1 (configuration not stated) |  | inactive: 13.3%
32 | CCC(C)(C(=O)NC1CCCC1)N(C(=O)CC1NC(=O)NC1=O)c1c(C)n(C)n(-c2ccccc2)c1=O (configuration not stated) | inconclusive: 6.31 µM [inhibitor, single point] | 
33 | CCOC(=O)/C(C(N)=NC)=C(\O)c1ccccc1 | inconclusive: 1.41 µM [inhibitor, full curve, poor fit] | 
34 | CC(C)COc1ccc(C(=O)NNC(=O)c2ccc(=O)[nH]c2)cc1 |  | inactive: -91.4% [at 12.7 µM]
35 | COc1ccc(CC(=O)Nc2cc(S(=O)(=O)N3CCCCC3)ccc2N2CCN(C)CC2)cc1 | inconclusive: 100 µM [inhibitor, single point] | 
36 | CC1CCN(C(=O)CSC2=NS(=O)(=O)c3cc(F)ccc3N2)CC1 | inconclusive: 50.1 µM [inhibitor, partial curve] | 
37 | Cc1ccnc(NS(=O)(=O)c2ccc(NC(=O)c3cc(=O)c4ccccc4o3)cc2)n1 |  | inactive: 18.1% [at 102 µM]
38 | CCCc1cc(-n2ccnc2)n2c(nc3ccccc32)c1C#N | active: 39.8 µM | 
39 | CCOCCCNC(=S)N1CCN(c2nc(-c3ccc(F)cc3)cs2)CC1 | inconclusive: 79.4 µM [inhibitor, partial curve, poor fit] | 
40 | CCOc1ccc(CNC(=O)Nc2ccccc2)cc1 |  | inactive: 18.5% [at 102 µM]
41 | CC1CC(C)CN(CCCNC(=O)C2CCN(c3ncnc4c3sc3cccc(F)c34)CC2)C1 (configuration not stated) | inconclusive: 79.4 µM [inhibitor, partial curve, poor fit] | 
42 | O=C(Nc1ccc2ncccc2c1)c1cccc(Br)c1 | inconclusive: 89.1 µM [inhibitor, single point] | 
43 | CC1(C)Oc2nc3ccccc3n2/C1=C\C#N | inconclusive: 39.8 µM [inhibitor, partial curve, poor fit] | 
44 | O=C1CC(c2ccc(Br)cc2)c2c(ccc3ccccc23)N1 (configuration not stated) | inconclusive: 3.98 µM [inhibitor, full curve, poor fit] | 
45 | NC(Cc1cccc2nsnc12)C(=O)O (configuration not stated) | inconclusive: 39.8 µM [inhibitor, single point] | 
46 | COc1ccc(OCCCC(=O)NCCc2ccc(OC)c(OC)c2)cc1 | inconclusive: 17.8 µM [inhibitor, single point] | 
47 | COc1ccccc1N1CCN(CCOc2c(OC)cccc2OC)CC1 | active: 39.8 µM | 
48 | CCc1nc2nc(C)cc(Nc3ccc(F)c(Cl)c3)n2n1 | inconclusive: 31.6 µM [inhibitor, single point] | 

Row | SMILES | Potency | activity, negative = inhibition
49 | Cc1nnc(SCC(=O)NCc2ccc3c(c2)OCO3)[nH]c1=O | active: 50.1 µM | 
50 | O=C(Nn1c(-c2ccncc2)nc2ccccc2c1=O)c1ccccc1Br | active: 50.1 µM | 
51 | CC(C)n1c(=O)c2oc3ccccc3c2n(CC(=O)Nc2ccccc2Cl)c1=O |  | inactive: 2.63%
52 | CCc1nnc(NC(=O)c2nc3nccc(C)n3n2)s1 | inconclusive: 6.31 µM [inhibitor, partial curve, poor fit] | 
53 | O=C1C[C@@H](c2ccc(O[C@@H]3O[C@H](CO)[C@@H](O)[C@H](O)[C@H]3O)cc2)Oc2cc(O)ccc21 |  | inactive: -12.8% [at 102 µM]
54 | O=C(c1ccccc1)c1ccc(OCCCN2CCCCC2)cc1 | active: 8.91 µM | 
55 | COc1ccc(N2CCN(CCN3C(=O)c4ccccc4C3=O)CC2)cc1 |  | inactive: -9.67% [at 102 µM]
56 | COC(=O)C1=C(CN2CCN(C)CC2)NC(=O)NC1c1cc(C)ccc1C (configuration not stated) |  | inactive: 19.9%
57 | O=C(COC(=O)c1ccc(-c2ccc([N+](=O)[O-])cc2)o1)NC(=O)NC12CC3CC(CC(C3)C1)C2 | inconclusive: 35.5 µM [inhibitor, single point] | 
58 | CCCN1CCN(CCCNC(=O)c2ccc3c(c2)NC(=O)c2ccccc2S3)CC1 |  | inactive: -9.64% [at 102 µM]
59 | CCOc1ccc(Nc2nc(C)c(NC(=O)c3ccc(C)cc3)c(Nc3ccc(OCC)cc3)n2)cc1 | inconclusive: 6.31 µM [inhibitor, partial curve, poor fit] | 
60 | C=C(C)CSC1=C(C#N)C(c2ccsc2)CC(=O)N1 (configuration not stated) |  | inactive: 2.56% [at 12.7 µM]
61 | CN(C)/C=N/C1=C(C#N)C(c2cccs2)c2ccc3ccccc3c2O1 (configuration not stated) | inconclusive: 25.1 µM [inhibitor, partial curve, poor fit] | 
62 | CCOC(=O)c1ccc(N(CC(=O)NC2CCCC2)C(=O)CNC(=O)c2ccco2)cc1 | inconclusive: 7.94 µM [inhibitor, partial curve, poor fit] | 
63 | CCN(c1ccccc1)S(=O)(=O)c1ccc(Cl)c(NC(=O)CN(C)C2CCN(C)CC2)c1 | active: 11.2 µM | 
64 | O=S(=O)(c1cc(Cl)cc(Cl)c1O)N1CCC2(CC1)OCCO2 |  | inactive: 63.9% [at 102 µM]
65 | Cc1ccccc1NC(=O)NCCCN1CCCC1 | inconclusive: 89.1 µM [inhibitor, single point] | 
66 | CC1CCN(c2ccc(C(=O)Nc3ccc4c(c3)OCO4)cc2[N+](=O)[O-])CC1 | inconclusive: 25.1 µM [inhibitor, single point] | 
67 | Cc1[nH]c(=O)[nH]c(=O)c1CSc1nnc([C@H](CC(C)C)NC(=O)OC(C)(C)C)o1 | inconclusive: 89.1 µM [inhibitor, single point] | 
68 | O=[N+]([O-])c1cc2oc3c(c2c(C=NCc2ccncc2)c1O)CCCC3 | inconclusive: 28.2 µM [inhibitor, single point] | 
69 | CCc1ccc(C(c2ccccc2)c2c[nH]c3ccc(C)cc23)s1 (configuration not stated) | inconclusive: 22.4 µM [inhibitor, single point] | 
70 | CC1=NN(c2ccccc2)C(=O)/C1=C/c1c(O)n(-c2ccc(F)cc2)[nH]c1=O | active: 11.2 µM | 
71 | Cc1cc2c(cc3c(=O)n(CC(=O)NCCCN4CC(C)CC(C)C4)ncn32)s1 (configuration not stated) | inconclusive: 79.4 µM [inhibitor, single point] | 
72 | COc1ccc(-c2csc(N3CCN(Cc4ccc5c(c4)OCO5)CC3)n2)cc1 | inconclusive: 2.82 µM [inhibitor, partial curve] | 
